The campaign covered roughly 16,000 compounds. About 120 (0.75%) were called active. Another 4% or so got no clear call; they are omitted. Calls come from the whole dose curve; as a rule, active = well fitted inhibition curve with a large enough effect; inconclusive = small, poorly fitted or top-dose-only effect; inactive = no such curve, though single readings can be large or run the other way. Some of the results follow.
Potency is the fitted concentration of half-maximal effect.

UniProt O95398, sequence (O95398 whole entry, looked up): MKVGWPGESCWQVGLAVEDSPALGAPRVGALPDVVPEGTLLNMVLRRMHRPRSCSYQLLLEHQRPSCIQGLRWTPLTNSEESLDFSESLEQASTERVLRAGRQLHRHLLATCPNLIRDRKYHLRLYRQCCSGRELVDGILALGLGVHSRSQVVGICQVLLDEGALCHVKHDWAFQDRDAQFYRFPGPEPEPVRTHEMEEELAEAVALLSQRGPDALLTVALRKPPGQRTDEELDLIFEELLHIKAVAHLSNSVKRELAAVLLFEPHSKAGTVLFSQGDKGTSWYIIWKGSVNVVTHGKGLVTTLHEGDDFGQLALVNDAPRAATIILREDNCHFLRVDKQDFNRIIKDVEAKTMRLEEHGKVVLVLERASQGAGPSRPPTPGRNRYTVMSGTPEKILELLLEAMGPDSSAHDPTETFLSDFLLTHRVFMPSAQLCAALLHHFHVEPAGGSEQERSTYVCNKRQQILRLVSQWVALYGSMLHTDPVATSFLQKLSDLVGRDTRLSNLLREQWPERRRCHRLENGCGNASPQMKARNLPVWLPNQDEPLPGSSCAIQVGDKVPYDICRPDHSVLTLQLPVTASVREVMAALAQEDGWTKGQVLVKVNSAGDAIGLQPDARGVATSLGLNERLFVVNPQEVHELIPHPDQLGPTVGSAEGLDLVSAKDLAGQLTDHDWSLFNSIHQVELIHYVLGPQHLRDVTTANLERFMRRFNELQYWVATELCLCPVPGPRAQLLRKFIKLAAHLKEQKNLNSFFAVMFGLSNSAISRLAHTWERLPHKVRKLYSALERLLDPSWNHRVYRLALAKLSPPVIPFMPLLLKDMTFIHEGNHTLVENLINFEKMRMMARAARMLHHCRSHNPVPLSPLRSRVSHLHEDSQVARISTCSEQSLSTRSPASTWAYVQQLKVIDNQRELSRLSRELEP

For the assay, the target named is Rap guanine nucleotide exchange factor 3 (Homo sapiens) (UniProt O95398). Nature of the assay: Validation qHTS for antagonist of cAMP-regulated guanine nucleotide exchange factor 3 (EPAC1).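 For activity change, negative = inhibition: plate controls were DMSO for no effect and ATA control for full effect.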 Note: nearly all actives have a fitted effect of over 75% in size. The following applies: EPAC1 Rap1B-BODIPY-GDP exchange, fluorescence; series mostly up to 150 µM; activity change, negative = inhibition: at the top concentration. In outline:
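Nucleotide exchange followed as fluorescence loss when BODIPY-GDP leaves Rap1B (480 nm excitation, 540 nm emission), read at 5 min intervals over 30 min. Reaction: 100 nM EPAC1, 250 nM RAP1B-BODIPY-GDP, 50 uM GDP; ATA and DMSO define normalization.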
Turning to `O=C(Nc1ccc(Cl)cc1Cl)[C@@H]1CC=C[C@@H]2CCN(C3CC3)C(=O)[C@@H]21`, the “activity change, negative = inhibition” value is inactive: 5.79%.

Regarding `O=C(c1cccc(F)c1F)N1CCOc2ccc(CN3CCC(Oc4cccnc4)CC3)cc2C1`, the “activity change, negative = inhibition” value is inactive: -3.14%.

Turning to `O=C(c1cccc(F)c1)N1CCC2(CC1)CN(c1ccccc1)C2`, the “activity change, negative = inhibition” value was inactive: 9.74%.

`C=C1c2cccc(O)c2C(O)=C2C(=O)[C@]3(O)C(O)=C(C(N)=O)C(=O)[C@@H](N(C)C)[C@@H]3[C@@H](O)[C@H]12`: the Potency is active: 31.6 µM.

Consider `COCC(=O)N1CCC2(CC1)CN(c1ccccc1)C2`, for which the “activity change, negative = inhibition” value is inactive: 25.9%.

Turning to `CC(C)(C)c1ccc(C(=O)C[n+]2cccc(Br)c2)cc1`, the “activity change, negative = inhibition” value was inactive: 21.9%.

Take `Cc1ccc2c(c1)CN(CCNC(=O)c1cccc(Cn3cccn3)c1)CC(C)O2` (stereo not drawn): the “activity change, negative = inhibition” value is inactive: -2.09%.

`O=C(c1cnccn1)N1CCC[C@@]2(CCN(c3cccc(-c4ccccc4)c3)C2)C1`: the “activity change, negative = inhibition” value is inactive: -17.7%.

For `COCCn1c(=O)c(-c2ccccc2)nc2cnc(OC)nc21`, the “activity change, negative = inhibition” value was inactive: -6.29%.

`CC(=O)NCCNc1nc(-c2ccccc2C)nc2ccccc12`: the “activity change, negative = inhibition” value is inactive: 6.7%.

Take `COCC(=O)Nc1cc(C(=O)N2CC3(C)CC2CC(C)(C)C3)c2c(c1)nc(-c1ccncc1)n2C` (stereo not drawn): the “activity change, negative = inhibition” value was inactive: -8.81%.

In the case of `O=C(O)c1cc2cc(Cc3cccnc3)ccc2o1`, the activity change, negative = inhibition entry was “inactive”.

For `CCCCNC(=O)[C@@H]1CC=C[C@@H]2CCN(CCCC)C(=O)[C@@H]21`, the “activity change, negative = inhibition” value is inactive: -7.72%.

As to `CCC1COCCS(=O)(=O)N1Cc1ccccc1F` (stereo not drawn), the “activity change, negative = inhibition” value is inactive: -11.3%.

In the case of `COCCNC(=O)COc1ccc(OCCNC[C@@H](O)COc2ccccc2)cc1`, the “activity change, negative = inhibition” value is inactive: 1.72%.

Regarding `O=C(O)c1cc(N(Cc2ccccc2O)Cc2cc(O)ccc2O)ccc1O`, the “activity change, negative = inhibition” value was inactive: -9.43%.

For `COc1ccccc1CCn1c(=O)c(C)nc2cncnc21`, the “activity change, negative = inhibition” value is inactive: 18.8%.

As to `CC1(C)CC2C1CC[C@]1(C)CCC3C(C(=O)O)CC(=O)O[C@]32C1` (stereo partly drawn), the “activity change, negative = inhibition” value was inactive: -9.02%.

For `COc1ccc(-n2c(=O)c(-c3ccc(F)cc3)nc3cncnc32)cc1`, the “activity change, negative = inhibition” value is inactive: 0.407%.

Turning to `CC(=O)C[C@H]1c2ccccc2S(=O)(=O)N1c1ccccc1`, the “activity change, negative = inhibition” value was inactive: 5.62%.

As for `COC(=O)N1CCC[C@@]2(CCN(C(c3ccccc3)c3ccccc3)C2)C1`, the “activity change, negative = inhibition” value was inactive: -1.54%.

As to `COCC(=O)N1CCC[C@@]2(CCN(c3ccccc3)C2)C1`, the “activity change, negative = inhibition” value is inactive: -3.78%.

`CCc1cccc(CC)c1NC(=O)CN(CC(=O)O)CC(=O)O`: the “activity change, negative = inhibition” value was inactive: 6.5% [at 75.8 µM].

Consider `C[N+]1(C)[C@@H]2CC(OC(=O)C(O)(c3cccs3)c3cccs3)C[C@H]1[C@@H]1O[C@@H]12` (stereo partly drawn), for which the “activity change, negative = inhibition” value is inactive: 4.19%.

For the compound `C=C[C@](C)(O)CCC1C(=C)CCC2[C@@](C)(CO)CCC[C@@]12C` (stereo partly drawn), the “activity change, negative = inhibition” value was inactive: 2.31%.

Take `CN(CC(=O)O)c1ccc(/C=C2\C=Cc3ccccc32)cc1`: the activity change, negative = inhibition result is “inactive”.

With `CC(=O)OC[C@@]1(O)C[C@]23CCC4c5ccoc5CC[C@@]4(C)C2CCC1C3` (stereo partly drawn), the “activity change, negative = inhibition” value was inactive: 7.17%.

As to `N#Cc1cccc(-c2nc3cnc(Oc4cccc(Cl)c4)nc3n(C3CC3)c2=O)c1`, the “activity change, negative = inhibition” value is inactive: 8.41%.

Values taken from PubChem BioAssay AID1645882 (National Center for Advancing Translational Sciences (NCATS), 2021).
